B1: PhoQ; a variant is named by its letters at X, in order, P23837 (parent)
chain: MKKLLRLFFPLSLRVRFLLATAAVVLVLSLAYGMVALIGYSVSFDKTTFRLLRGESNLFYTLAKWENNKLHVELPENIDKQSPTMTLIYDENGQLLWAQRDVPWLMKMIQPDWLKSNGFHEIEADVNDTSLLLSGDHSIQQQLQEVREDDDDAEMTHSVAVNVYPATSRMPKLTIVVVDTIPVELKSSYMVWSWFIYVLSANLLLVIPLLWVAAWWSLRPIEALAKEVRELEEHNRELLNPATTRELTSLVRNLNRLLKSERERYDKYRTTLTDLTHSLKTPLXXLQXXLRSLRSEKMSVSDAEPVMLEQISRISQQIGYYLHRASMRGGTLLSRELHPVAPLLDNLTSALNKVYQRKGVNISLDISPEISFVGEQNDFVEVMGNVLDNACKYCLEFVEISARQTDEHLYIVVEDDGPGIPLSKREVIFDRGQRVDTLRPGQGVGLAVAREITEQYEGKIVAGESMLGGARMEVIFGRQHSAPKDE

The list shows a part of the results.

This experiment covers variants of B1. Briefly: enrichment ratio after two sorts for PhoP signalling (ratio (wild type AVST 3.29)); higher = more functional. Particulars: with PhoP (E. coli).
As to NPTE, the enrichment ratio was at most 0.25.
The same measure for YSRQ: at most 0.25; for VWPY: at most 0.25.
The same measure for QIPM: at most 0.25; for RELQ: at most 0.25; for EECV: at most 0.25.
To LDFY belongs at most 0.25.
For the variant RTVV, the enrichment ratio was at most 0.25.
In the case of MYNV, the enrichment ratio is at most 0.25.
The same measure for GWWN: at most 0.25; for MDEY: at most 0.25.
To LFVV belongs at most 0.25.
The same measure for WNLL: at most 0.25; for MCTT: at most 0.25; for WGVF: at most 0.25.
For PGMH, the enrichment ratio was at most 0.25.
To NCRH belongs at most 0.25; to RWWL, at most 0.25.
The same measure for RHQE: at most 0.25; for LNHF: at most 0.25; for QPPH: at most 0.25.
The same measure for DPHP: 0.272.
Regarding FREN, the enrichment ratio was at most 0.25.
To AWTQ belongs at most 0.25; to IFYD, at most 0.25.
The same measure for AWFM: at most 0.25.
To HPDQ belongs at most 0.25; to MQID, at most 0.25.
Turning to WDWC, the enrichment ratio was at most 0.25.
DCHL: the enrichment ratio is at most 0.25.
Take ALID: the enrichment ratio is at most 0.25.
Take HYFY: the enrichment ratio is at most 0.25.
Take NLWC: the enrichment ratio was at most 0.25.
In the case of AVGG, the enrichment ratio is 3.35.
For PASY, the enrichment ratio is at most 0.25.
For RCIQ, the enrichment ratio was at most 0.25.
Regarding SSDF, the enrichment ratio turned out to be 0.297.
Consider WYIH, for which the enrichment ratio was at most 0.25.
To VAFR belongs at most 0.25.
For NPYD, the enrichment ratio was at most 0.25.
On to ICAF, for which the enrichment ratio is at most 0.25.
To KSET belongs at most 0.25; to AMFF, at most 0.25; to IKPS, at most 0.25.
To PWRN belongs at most 0.25; to GKIR, at most 0.25; to KMWP, at most 0.25.
The same measure for HIFG: at most 0.25.
On to GSIF, for which the enrichment ratio stood at 5.29.
The same measure for MAPD: at most 0.25; for YCDK: at most 0.25; for EYNN: at most 0.25.
To QHFI belongs at most 0.25.
The same measure for FDHY: at most 0.25; for TKNK: at most 0.25; for ATFK: 0.322.
As for TMVL, the enrichment ratio is at most 0.25.
In the case of FLKY, the enrichment ratio is at most 0.25.
As for WDGR, the enrichment ratio was at most 0.25.
In the case of KTHV, the enrichment ratio was at most 0.25.
The same measure for IWDK: at most 0.25; for MLWV: at most 0.25.
To DWRC belongs at most 0.25; to IHWD, at most 0.25; to PRHC, at most 0.25.
On to KVTF, for which the enrichment ratio is at most 0.25.
To KYTF belongs at most 0.25.
On to FLPV, for which the enrichment ratio was at most 0.25.
With SKQH, the enrichment ratio is at most 0.25.
To WWVY belongs at most 0.25; to HFGE, at most 0.25.
The same measure for EKGS: at most 0.25; for MTVM: 12.8; for HEAD: at most 0.25.
To WRHS belongs at most 0.25; to EKGC, at most 0.25; to IIHQ, at most 0.25.
Consider EHQC, for which the enrichment ratio is at most 0.25.
On to SQIP, for which the enrichment ratio was at most 0.25.
IEHC: the enrichment ratio was at most 0.25.
The same measure for EDWQ: at most 0.25.
In the case of TTSC, the enrichment ratio worked out at 10.3.
To YSDH belongs at most 0.25; to TLRN, at most 0.25; to WIYY, at most 0.25.
As to YMRE, the enrichment ratio is at most 0.25.
With PGGH, the enrichment ratio was at most 0.25.
To WVYD belongs at most 0.25; to LNPP, at most 0.25.
For HKEC, the enrichment ratio was at most 0.25.
To YHYH belongs at most 0.25; to FILT, at most 0.25; to NSDG, at most 0.25.
The same measure for NILN: at most 0.25; for YSYL: at most 0.25; for TPCM: at most 0.25.
To LQLH belongs at most 0.25; to QPYK, at most 0.25.
For FWWY, the enrichment ratio was at most 0.25.
Consider IRNI, for which the enrichment ratio is at most 0.25.
The same measure for IMYA: at most 0.25; for GWEA: at most 0.25; for MSNS: at most 0.25.
The same measure for AVVS: 1.39; for HQVI: at most 0.25.
Consider YNWH, for which the enrichment ratio was at most 0.25.
To SALR belongs 2.39.
To IHGS belongs at most 0.25.
On to FEIY, for which the enrichment ratio is at most 0.25.
To LYKS belongs at most 0.25; to GWYS, at most 0.25; to DDPG, at most 0.25.
To KTMR belongs at most 0.25; to PTTF, at most 0.25.
Turning to SGST, the enrichment ratio stood at 9.85.
The same measure for AKGY: at most 0.25; for TSRP: at most 0.25.
Regarding NQCS, the enrichment ratio is at most 0.25.
Regarding DMPL, the enrichment ratio is at most 0.25.
The same measure for NLFG: at most 0.25; for AWAP: at most 0.25.
To WDWR belongs at most 0.25; to WTVL, at most 0.25.
The same measure for NVWP: at most 0.25.
Consider NPHL, for which the enrichment ratio was at most 0.25.
With LLFK, the enrichment ratio was at most 0.25.
To WGTI belongs at most 0.25; to KCSH, at most 0.25.
To FHTQ belongs at most 0.25; to TRSF, at most 0.25; to VTWK, at most 0.25.
As for DART, the enrichment ratio was at most 0.25.
To HCYV belongs at most 0.25.
Consider PSMT, for which the enrichment ratio was at most 0.25.
To SCGW belongs 20.5; to SSNT, at most 0.25.
As for RQEC, the enrichment ratio is at most 0.25.
The same measure for PCIT: at most 0.25.
On to THQG, for which the enrichment ratio was 6.61.
YNDV: the enrichment ratio was at most 0.25.
To LYLI belongs at most 0.25; to TLFY, at most 0.25.
Take WPYA: the enrichment ratio was at most 0.25.
The same measure for FKSK: at most 0.25; for YHCS: at most 0.25; for HGDL: at most 0.25.
Regarding NFIQ, the enrichment ratio is at most 0.25.
To PLKF belongs at most 0.25.
To PYLQ belongs at most 0.25; to PMPE, at most 0.25.
Regarding ENMR, the enrichment ratio was at most 0.25.
The same measure for LQPD: at most 0.25; for HTVN: at most 0.25.

Values taken from a collection of fitness landscapes (doi:10.1126/science.1257360).
